# The other results are listed elsewhere or left out. Most values come without repeats; read them as rough.
# Columns and labels:
# Assay in all cases: cell count relative to DMSO control; melanoma cells; higher = more viable cells
# Conditions in all cases: library dose: low library concentration; 72 h
# WM115 = system: WM115
# WM1716 = system: WM1716
# WM1745 = system: WM1745
# WM3526 = system: WM3526
# WM3619 = system: WM3619
# WM451Lu = system: WM451Lu
# 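Note: cell number obtained by counting DAPI-stained nuclei in high-throughput microscope images with image analysis software, screen run in 1,536-well plates.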
Compound,cell count (WM115) [%],cell count (WM1716) [%],cell count (WM1745) [%],cell count (WM3526) [%],cell count (WM3619) [%],cell count (WM451Lu) [%]
"Cc1cc(Nc2cc(N3CCN(C)CC3)nc(/C=C/c3ccccc3)n2)n[nH]1 + CC(=O)c1c(C)c2cnc(Nc3ccc(N4CCNCC4)cn3)nc2n(C2CCCC2)c1=O [palbociclib] (first compound 0.04 µM, partner dose 0.04 µM)",82.7,75.9,66.4,63,76.8,90.5
"Cn1c(=O)n(-c2ccc(C(C)(C)C#N)cc2)c2c3cc(-c4cnc5ccccc5c4)ccc3ncc21 + Clc1ccc(Nc2nnc(Cc3ccncc3)c3ccccc23)cc1 [vatalanib] (first compound 0.004 µM, partner dose 2 µM)",90.4,86.6,73,97.1,72.2,89.9
"Cc1cn(-c2cc(NC(=O)c3ccc(C)c(Nc4nccc(-c5cccnc5)n4)c3)cc(C(F)(F)F)c2)cn1 [nilotinib] + CS(=O)(=O)CCNCc1ccc(-c2ccc3ncnc(Nc4ccc(OCc5cccc(F)c5)c(Cl)c4)c3c2)o1 [lapatinib] (first compound 0.2 µM, partner dose 0.8 µM)",108,90,86.7,105,131,105
"Cc1cn(-c2cc(NC(=O)c3ccc(C)c(Nc4nccc(-c5cccnc5)n4)c3)cc(C(F)(F)F)c2)cn1 [nilotinib] + CS(=O)(=O)c1ccc(C(=O)Nc2ccc(Cl)c(-c3ccccn3)c2)c(Cl)c1 [vismodegib] (first compound 0.2 µM, partner dose 1 µM)",108,100,112,108,113,106

# Reference: the supplement of paper PMC4604168 (melanoma cell lines)
